From the supplement of paper PMC8728848
Some of the results follow.

Assays:
Assay in all cases: glycan array binding signal (z-score within array); higher = stronger binding
Settings in all cases: glycan notation: IUPAC condensed, linker removed
[1] = biological target: GlcNAc(b1-3)Gal(b1-4)GlcNAc(b1-2)Man(a1-3)[GlcNAc(b1-3)Gal(b1-4)GlcNAc(b1-2)Man(a1-6)]Man(b1-4)GlcNAc(b1-4)GlcNAc
Method in brief: (§1)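 Columns mapping to the same glycan were averaged after glycan names were converted to IUPAC-condensed notation. The data come from 3228 arrays in the Consortium for Functional Glycomics database, limited to those with an available protein sequence. Binding is reported as a within-array Z-score averaged across arrays of one protein sequence and across linkers.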

[2] = biological target: GlcNAc(b1-3)Gal(b1-4)GlcNAc(b1-2)Man(a1-3)[GlcNAc(b1-3)Gal(b1-4)GlcNAc(b1-2)Man(a1-6)]Man(b1-4)GlcNAc(b1-4)[Fuc(a1-6)]GlcNAc
Method in brief: as §1

[3] = biological target: GlcNAc(b1-3)Gal(b1-4)GlcNAc(b1-2)[GlcNAc(b1-3)Gal(b1-4)GlcNAc(b1-6)]Man(a1-6)[GlcNAc(b1-3)Gal(b1-4)GlcNAc(b1-2)Man(a1-3)]Man(b1-4)GlcNAc(b1-4)GlcNAc
Method in brief: as §1

[4] = biological target: GlcNAc(b1-3)Gal(b1-4)GlcNAc(b1-3)Gal(b1-4)GlcNAc
Method in brief: as §1

[5] = biological target: GlcNAc(b1-3)Gal(b1-4)GlcNAc(b1-3)Gal(b1-4)GlcNAc(b1-2)Man(a1-3)[GlcNAc(b1-3)Gal(b1-4)GlcNAc(b1-3)Gal(b1-4)GlcNAc(b1-2)Man(a1-6)]Man(b1-4)GlcNAc(b1-4)GlcNAc
Method in brief: as §1

[6] = biological target: GlcNAc(b1-3)Gal(b1-4)GlcNAc(b1-3)Gal(b1-4)GlcNAc(b1-2)Man(a1-3)[GlcNAc(b1-3)Gal(b1-4)GlcNAc(b1-3)Gal(b1-4)GlcNAc(b1-2)Man(a1-6)]Man(b1-4)GlcNAc(b1-4)[Fuc(a1-6)]GlcNAc
Method in brief: as §1

[7] = biological target: GlcNAc(b1-3)Gal(b1-4)GlcNAc(b1-3)Gal(b1-4)GlcNAc(b1-2)[GlcNAc(b1-3)Gal(b1-4)GlcNAc(b1-3)Gal(b1-4)GlcNAc(b1-6)]Man(a1-6)[GlcNAc(b1-3)Gal(b1-4)GlcNAc(b1-3)Gal(b1-4)GlcNAc(b1-2)Man(a1-3)]Man(b1-4)GlcNAc(b1-4)[Fuc(a1-6)]GlcNAc
Method in brief: as §1

[8] = biological target: GlcNAc(b1-3)Gal(b1-4)GlcNAc(b1-3)Gal(b1-4)GlcNAc(b1-3)Gal(b1-4)GlcNAc(b1-2)Man(a1-3)[GlcNAc(b1-3)Gal(b1-4)GlcNAc(b1-3)Gal(b1-4)GlcNAc(b1-3)Gal(b1-4)GlcNAc(b1-2)Man(a1-6)]Man(b1-4)GlcNAc(b1-4)GlcNAc
Method in brief: as §1

[9] = biological target: GlcNAc(b1-3)Gal(b1-4)GlcNAc(b1-3)Gal(b1-4)GlcNAc(b1-3)Gal(b1-4)GlcNAc(b1-2)Man(a1-3)[GlcNAc(b1-3)Gal(b1-4)GlcNAc(b1-3)Gal(b1-4)GlcNAc(b1-3)Gal(b1-4)GlcNAc(b1-2)Man(a1-6)]Man(b1-4)GlcNAc(b1-4)[Fuc(a1-6)]GlcNAc
Method in brief: as §1

[10] = biological target: GlcNAc(b1-3)Gal(b1-4)GlcNAc(b1-3)Gal(b1-4)GlcNAc(b1-3)Gal(b1-4)GlcNAc(b1-2)[GlcNAc(b1-3)Gal(b1-4)GlcNAc(b1-3)Gal(b1-4)GlcNAc(b1-3)Gal(b1-4)GlcNAc(b1-6)]Man(a1-6)[GlcNAc(b1-3)Gal(b1-4)GlcNAc(b1-3)Gal(b1-4)GlcNAc(b1-3)Gal(b1-4)GlcNAc(b1-2)Man(a1-3)]Man(b1-4)GlcNAc(b1-4)[Fuc(a1-6)]GlcNAc
Method in brief: as §1

[11] = biological target: GlcNAc(b1-3)Gal(b1-4)GlcNAc(b1-3)Gal(b1-4)GlcNAc(b1-3)Gal(b1-4)GlcNAc(b1-3)Gal(b1-4)GlcNAc(b1-2)Man(a1-3)[GlcNAc(b1-3)Gal(b1-4)GlcNAc(b1-3)Gal(b1-4)GlcNAc(b1-3)Gal(b1-4)GlcNAc(b1-3)Gal(b1-4)GlcNAc(b1-2)Man(a1-6)]Man(b1-4)GlcNAc(b1-4)GlcNAc
Method in brief: as §1

[12] = biological target: GlcNAc(b1-3)Gal(b1-4)GlcNAc(b1-3)Gal(b1-4)GlcNAc(b1-3)Gal(b1-4)GlcNAc(b1-3)Gal(b1-4)GlcNAc(b1-2)Man(a1-3)[GlcNAc(b1-3)Gal(b1-4)GlcNAc(b1-3)Gal(b1-4)GlcNAc(b1-3)Gal(b1-4)GlcNAc(b1-3)Gal(b1-4)GlcNAc(b1-2)Man(a1-6)]Man(b1-4)GlcNAc(b1-4)[Fuc(a1-6)]GlcNAc
Method in brief: as §1

[13] = biological target: GlcNAc(b1-3)Gal(b1-4)GlcNAc(b1-3)Gal(b1-4)GlcNAc(b1-3)Gal(b1-4)GlcNAc(b1-3)Gal(b1-4)GlcNAc(b1-2)[GlcNAc(b1-3)Gal(b1-4)GlcNAc(b1-3)Gal(b1-4)GlcNAc(b1-3)Gal(b1-4)GlcNAc(b1-3)Gal(b1-4)GlcNAc(b1-6)]Man(a1-6)[GlcNAc(b1-3)Gal(b1-4)GlcNAc(b1-3)Gal(b1-4)GlcNAc(b1-3)Gal(b1-4)GlcNAc(b1-3)Gal(b1-4)GlcNAc(b1-2)Man(a1-3)]Man(b1-4)GlcNAc(b1-4)[Fuc(a1-6)]GlcNAc
Method in brief: as §1

[14] = biological target: GlcNAc(b1-3)Gal(b1-4)GlcNAc(b1-3)Gal(b1-4)GlcNAc(b1-3)GalNAc
Method in brief: as §1

[15] = biological target: GlcNAc(b1-3)Gal(b1-4)GlcNAc(b1-3)GalNAc
Method in brief: as §1

[16] = biological target: GlcNAc(b1-3)Gal(b1-4)GlcNAc(b1-3)[GlcNAc(b1-3)Gal(b1-4)GlcNAc(b1-3)]GalNAc
Method in brief: as §1

[17] = biological target: GlcNAc(b1-3)Gal(b1-4)GlcNAc(b1-6)[Gal(b1-3)]GalNAc
Method in brief: as §1

[18] = biological target: GlcNAc(b1-3)Gal(b1-4)GlcNAc(b1-6)[GlcNAc(b1-3)Gal(b1-3)]GalNAc
Method in brief: as §1

[19] = biological target: GlcNAc(b1-3)Gal(b1-4)GlcNAc(b1-6)[GlcNAc(b1-3)]Gal(b1-4)GlcNAc
Method in brief: as §1

B1: Siglec-9 (Homo sapiens), Q9Y336 (protein)
chain: MLLLLLPLLWGRERAEGQTSKLLTMQSSVTVQEGLCVHVPCSFSYPSHGWIYPGPVVHGYWFREGANTDQDAPVATNNPARAVWEETRDRFHLLGDPHTKNCTLSIRDARRSDAGRYFFRMEKGSIKWNYKHHRLSVNVTALTHRPNILIPGTLESGCPQNLTCSVPWACEQGTPPMISWIGTSVSPLDPSTTRSSVLTLIPQPQDHGTSLTCQVTFPGASVTTNKTVHLNVSYPPQNLTMTVFQGDGTVSTVLGNGSSLSLPEGQSLRLVCAVDAVDSNPPARLSLSWRGLTLCPSQPSNPGVLELPWVHLRDAAEFTCRAQNPLGSQQVYLNVSLQSKATSGVTQGVVGGAGATALVFLSFCVIFVVVRSCRKKSARPAAGVGDTGIEDANAVRGSASQGPLTEPWAEDSPPDQPPPASARSSVGEGELQYASLSFQMVKPWDSRGQEATDTEYSEIKIHR
glycan array binding signal (z-score) [1]: -0.042
glycan array binding signal (z-score) [2]: -0.093
glycan array binding signal (z-score) [3]: -0.437
glycan array binding signal (z-score) [4]: -0.137
glycan array binding signal (z-score) [5]: 0.062
glycan array binding signal (z-score) [6]: 0.062
glycan array binding signal (z-score) [7]: 0.145
glycan array binding signal (z-score) [8]: 0.046
glycan array binding signal (z-score) [9]: 0.165
glycan array binding signal (z-score) [10]: 0.036
glycan array binding signal (z-score) [11]: -0.181
glycan array binding signal (z-score) [12]: -0.048
glycan array binding signal (z-score) [13]: 0.152
glycan array binding signal (z-score) [14]: -0.128
glycan array binding signal (z-score) [15]: -0.044
glycan array binding signal (z-score) [16]: -0.1
glycan array binding signal (z-score) [17]: -0.144
glycan array binding signal (z-score) [18]: -0.082
glycan array binding signal (z-score) [19]: -0.344
